According to a collection of fitness landscapes (doi:10.1016/j.celrep.2020.107928):
Whole data set: some 81,000 sequences, median “one-hybrid fitness for binding NBS DNA” near -0.1, cut for the highest 2% near 0.36. Some of the results follow.

B1: Caulobacter ParB omega fusion; a variant is named by its letters at X, in order, B8GW30 (parent)
chain: MESVVVGEPGMSEGRRGLGRGLSALLGEVDAAPAQAPGEQLGGSREAPIEILQRNPDQPRRTFREEDLEDLSNSIREKGVLQPILVRPSPDTAGEYQIVAGERAWRAAQRAGLKTVPIMVRELDDLAVLEIGIIENVQRADLNVLEEALSYKVLMEKFERTQENIAQTIGKSXSHVANXMRLLXLPDEVQSYLVSGELTAXHARAIAAAADPVALAKQIIEGGLSVRETEALARKAPNLSAGKSKGGRPPRVKDTDTQALESDLSSVLGLDVSIDHRGSTGTLTITYATLEQLDDLCNRLTRGI

Variants of: B1
Experiment: one-hybrid fitness for binding NBS DNA (the Noc-binding site; scaled: cognate 1, non-cognate 0); higher = stronger binding
Conditions: with NBS DNA site
How it was run: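 Fitness is the rescaled log change in variant-to-wild-type read ratio, measured by Illumina sequencing of plasmids before and after bacterial one-hybrid selection. The scale puts cognate at 1 and non-cognate at 0. Selection of Caulobacter ParB libraries, four specificity codons randomised, took place in E. coli USO with a HIS3 reporter, site 19 bp from the promoter, over 48 hours at 37°C on M9-minus-histidine with 0.1 mM IPTG and 5 mM 3-AT.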

Variant	one-hybrid fitness for binding NBS DNA
NGGN	≤ 0.2
CFGC	≤ 0.2
QYNE	≤ 0.2
LMDK	≤ 0.2
EDHG	≤ 0.2
YPVA	≤ 0.2
HYRW	≤ 0.2
LDKK	≤ 0.2
QQWT	0.44
PLHA	≤ 0.2
EVPS	≤ 0.2
NVPP	≤ 0.2
QCSP	≤ 0.2
FWQS	≤ 0.2
RGEF	≤ 0.2
RLCA	≤ 0.2
SHRD	≤ 0.2
QLYD	≤ 0.2
PHWR	≤ 0.2
RKKR	0.768
FRNG	≤ 0.2
FLHG	≤ 0.2
NFDR	≤ 0.2
FSYS	≤ 0.2

Variant	one-hybrid fitness for binding NBS DNA
QNIL	≤ 0.2
RRWW	≤ 0.2
SACS	≤ 0.2
GVNA	≤ 0.2
RCQQ	≤ 0.2
LHQE	≤ 0.2
RSIE	≤ 0.2
RQQD	≤ 0.2
INLC	≤ 0.2
NVKG	≤ 0.2
HLPF	≤ 0.2
DFYC	≤ 0.2
LNEM	≤ 0.2
TPKC	≤ 0.2
PDVG	≤ 0.2
ETCC	≤ 0.2
NVWA	≤ 0.2
VAHN	≤ 0.2
QCML	≤ 0.2
LSLC	≤ 0.2
ATRP	≤ 0.2
PTPD	≤ 0.2
QHIH	≤ 0.2
SSGK	≤ 0.2

Variant	one-hybrid fitness for binding NBS DNA
GVFP	≤ 0.2
RCLI	≤ 0.2
DDGT	≤ 0.2
SDSF	≤ 0.2
WRQC	≤ 0.2
CANE	≤ 0.2
NTRF	≤ 0.2
LKRV	≤ 0.2
GRFI	≤ 0.2
QLDF	≤ 0.2
SCEC	≤ 0.2
NNTG	≤ 0.2
ACTN	≤ 0.2
NGED	≤ 0.2
RPDA	≤ 0.2
LVIW	≤ 0.2
KDHC	≤ 0.2
RHRY	0.271
TRQR	0.351
SLHC	≤ 0.2
KDDS	≤ 0.2
HSMI	≤ 0.2
AVAL	≤ 0.2
TVLQ	≤ 0.2

Variant	one-hybrid fitness for binding NBS DNA
PDLS	≤ 0.2
PPVG	≤ 0.2
DRHA	≤ 0.2
GATE	≤ 0.2
LLAC	≤ 0.2
FKCS	≤ 0.2
TICV	≤ 0.2
VPYR	≤ 0.2
QDKI	≤ 0.2
MDSS	≤ 0.2
PMKY	≤ 0.2
MLNW	≤ 0.2
PGHW	≤ 0.2
DNRI	≤ 0.2
QRID	≤ 0.2
CMSR	≤ 0.2
TNKL	≤ 0.2
VSPR	≤ 0.2
MHWS	≤ 0.2
YSLL	≤ 0.2
TCYH	≤ 0.2
IESG	≤ 0.2
LTTP	≤ 0.2
TCLI	≤ 0.2

Variant	one-hybrid fitness for binding NBS DNA
VHRR	0.248
TGPL	≤ 0.2
MNKR	0.229
ALME	≤ 0.2
LMET	≤ 0.2
HACT	≤ 0.2
HKAG	≤ 0.2
KLTL	≤ 0.2
VTPS	≤ 0.2
DGRY	≤ 0.2
TILV	≤ 0.2
VHIG	≤ 0.2
QYSM	≤ 0.2
SKPI	≤ 0.2
YDPM	≤ 0.2
TRRG	≤ 0.2
AIYV	≤ 0.2
QTWT	0.543
GSHP	≤ 0.2
QQIT	0.389
ESVM	≤ 0.2
YREW	≤ 0.2
ECMS	≤ 0.2
DKAR	≤ 0.2

Variant	one-hybrid fitness for binding NBS DNA
KKNT	0.425
WGRI	≤ 0.2
RMNI	≤ 0.2
MKSR	≤ 0.2
RVWL	≤ 0.2
MHEG	≤ 0.2
ALNY	≤ 0.2
SHWC	≤ 0.2
INCG	≤ 0.2
PSSC	≤ 0.2
RCQK	≤ 0.2
RWCP	≤ 0.2
EVMV	≤ 0.2
NPIT	≤ 0.2
GNWR	≤ 0.2
LESV	≤ 0.2
LQYM	≤ 0.2
KHLC	≤ 0.2
KKPY	≤ 0.2
REHY	≤ 0.2
NSTA	≤ 0.2
IDTG	≤ 0.2
WSKG	≤ 0.2
QDNQ	≤ 0.2

Variant	one-hybrid fitness for binding NBS DNA
QPAG	≤ 0.2
PFAN	≤ 0.2
VDVR	≤ 0.2
PYYF	≤ 0.2
YKDW	≤ 0.2
YQQD	≤ 0.2
CNCM	≤ 0.2
TDQR	≤ 0.2
AWQG	≤ 0.2
IVSR	≤ 0.2
PFGR	≤ 0.2
TYSN	≤ 0.2
TMSS	≤ 0.2
VWTC	≤ 0.2
PHSF	≤ 0.2
RHHE	≤ 0.2
NIWS	≤ 0.2
TCMK	≤ 0.2
ICDS	≤ 0.2
QIMD	≤ 0.2
HEAL	≤ 0.2
LMIR	≤ 0.2
NSRR	≤ 0.2
PTYM	≤ 0.2

Variant	one-hybrid fitness for binding NBS DNA
LHHG	≤ 0.2
YKNA	≤ 0.2
TFRV	≤ 0.2
MLSR	≤ 0.2
RQTE	≤ 0.2
HWVG	≤ 0.2
DGAP	≤ 0.2
PEGA	≤ 0.2
ELTC	≤ 0.2
TWEL	≤ 0.2
ARNS	≤ 0.2
RIYW	≤ 0.2
RFAM	≤ 0.2
KRAR	0.541
SNVF	≤ 0.2
RHNW	≤ 0.2
AIMF	≤ 0.2
VTMI	≤ 0.2
HNGA	≤ 0.2
VDDD	≤ 0.2
NTYT	≤ 0.2
TNKV	≤ 0.2
DQSF	≤ 0.2
QDEM	≤ 0.2

Variant	one-hybrid fitness for binding NBS DNA
GNNT	≤ 0.2
KAMI	≤ 0.2
WTQG	≤ 0.2
FEYV	≤ 0.2
WAHG	≤ 0.2
VPTW	≤ 0.2
YKPT	≤ 0.2
PHIQ	≤ 0.2
GASQ	≤ 0.2
VMQW	≤ 0.2
QSAW	≤ 0.2
TTKM	≤ 0.2
DIGS	≤ 0.2
QSAK	≤ 0.2
TASF	≤ 0.2
DLAG	≤ 0.2
SLFM	≤ 0.2
WVFS	≤ 0.2
SMWA	≤ 0.2
HMLM	≤ 0.2
PHDN	≤ 0.2
RHHS	0.443
PPLI	≤ 0.2
GHWM	≤ 0.2

Variant	one-hybrid fitness for binding NBS DNA
YYCR	≤ 0.2
VGAC	≤ 0.2
VSIR	≤ 0.2
AGLS	≤ 0.2
NANA	≤ 0.2
DIYG	≤ 0.2
IGYR	≤ 0.2
GPTW	≤ 0.2
VQPW	≤ 0.2
GRTW	≤ 0.2
ECRG	≤ 0.2
DASF	≤ 0.2
REWT	≤ 0.2
RGSQ	≤ 0.2
TLIY	≤ 0.2
TPYI	≤ 0.2
EDLD	≤ 0.2
ATRF	≤ 0.2
KCQS	≤ 0.2
NHSG	≤ 0.2
LFQG	≤ 0.2
HMNL	≤ 0.2
WTFI	≤ 0.2
VFAG	≤ 0.2

Variant	one-hybrid fitness for binding NBS DNA
GDNV	≤ 0.2
TGEF	≤ 0.2
QCIL	≤ 0.2
QQWC	≤ 0.2
ISRT	≤ 0.2
RVKV	≤ 0.2
LCRI	≤ 0.2
VPPH	≤ 0.2
AQRG	≤ 0.2
YVPA	≤ 0.2
GSEC	≤ 0.2
ENWV	≤ 0.2
NWTC	≤ 0.2
FYHS	≤ 0.2
ARAG	≤ 0.2
SNNW	≤ 0.2
SCYN	≤ 0.2
KRIV	≤ 0.2
RFVE	≤ 0.2
QVIF	≤ 0.2
LEVL	≤ 0.2
DMEG	≤ 0.2
PDRH	≤ 0.2
RHCV	≤ 0.2

Variant	one-hybrid fitness for binding NBS DNA
LRHK	≤ 0.2
YYPS	≤ 0.2
QGQR	≤ 0.2
HTIY	≤ 0.2
LPYR	≤ 0.2
RVPK	≤ 0.2
LENR	≤ 0.2
FWEG	≤ 0.2
HIAS	≤ 0.2
WSHT	≤ 0.2
QFGS	≤ 0.2
LLQY	≤ 0.2
HDHR	≤ 0.2
LIYR	≤ 0.2
RNFQ	≤ 0.2
YQTN	≤ 0.2
CRRC	≤ 0.2
SKQF	≤ 0.2
QPVF	≤ 0.2
NTSG	≤ 0.2
QRRL	0.364
PHLT	≤ 0.2
QAQT	0.364
APWG	≤ 0.2

Variant	one-hybrid fitness for binding NBS DNA
CSMD	≤ 0.2
KWAR	≤ 0.2
RGFL	≤ 0.2
AYWA	≤ 0.2
DLFE	≤ 0.2
SLCV	≤ 0.2
INYP	≤ 0.2
WSNC	≤ 0.2
QGKL	≤ 0.2
AQIV	≤ 0.2
SFTY	≤ 0.2
KCCV	≤ 0.2
HPCW	≤ 0.2
WYHG	≤ 0.2
TRGH	≤ 0.2
RSRK	≤ 0.2
PATP	≤ 0.2
HVGL	≤ 0.2
